The supplement of paper PMC3334620
In all, about 33,000 sequences were measured (“E-score (-0.5 to 0.5)”: median about -0.036, highest 2% from about 0.37 on). The list shows a part of the results.

biological target: T1, Yer064c (UniProt P40041); test: PBM E-score (8-mer binding enrichment) (E-score (-0.5 to 0.5)); higher = stronger / more preferred TF binding; most listed sequences are background and not binding sites; conditions: protein concentration: 200 nM; construct: GST-full length
T1 sequence: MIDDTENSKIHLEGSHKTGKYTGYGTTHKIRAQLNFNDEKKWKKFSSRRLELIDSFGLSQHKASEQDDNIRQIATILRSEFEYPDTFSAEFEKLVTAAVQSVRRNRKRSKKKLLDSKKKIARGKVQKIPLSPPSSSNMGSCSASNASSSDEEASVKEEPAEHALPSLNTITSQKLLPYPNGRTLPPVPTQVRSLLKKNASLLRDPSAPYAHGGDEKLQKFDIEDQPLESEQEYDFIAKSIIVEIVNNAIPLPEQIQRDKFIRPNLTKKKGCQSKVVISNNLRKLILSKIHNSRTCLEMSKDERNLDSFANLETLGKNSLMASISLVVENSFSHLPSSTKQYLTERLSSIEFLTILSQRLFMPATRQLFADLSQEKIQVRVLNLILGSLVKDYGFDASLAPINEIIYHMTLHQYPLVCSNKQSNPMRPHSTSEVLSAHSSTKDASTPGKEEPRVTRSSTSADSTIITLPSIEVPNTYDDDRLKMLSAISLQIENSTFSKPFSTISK
How it was run: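 For each ungapped eight-base word taken together with its reverse complement, the Universal PBM Analysis Suite assigned an E-score. Binding data came from GST-tagged yeast transcription factors, applied at about 100-200 nM, on universal all-10-mer Agilent arrays made double-stranded by primer extension. Fluorescent anti-GST marked bound protein, and scans were normalised with masliner.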

| Sequence | PBM E-score |
| --- | --- |
| TCACAGAA | 0.232 |
| GCGGGCTA | -0.133 |
| GATTACTA | 0.294 |
| AAACCCCG | 0.00286 |
| ACGAGCAT | -0.153 |
| CCGTACTA | -0.0925 |
| CACTAGCG | -0.219 |
| CCAGGGTA | -0.0928 |
| CAAGCCTA | -0.138 |
| CTTTGGAC | 0.0807 |
| ATTCTCGG | 0.0573 |
| ACCAACGA | -0.0117 |
| GTCACCAC | 0.29 |
| GCACAAGA | 0.00075 |
| TCCCGAGA | 0.0528 |
| CAAGGTCC | -0.203 |
| AGCTTTCG | -0.159 |
| ACGTTACG | -0.0552 |
| TATCCCAA | -0.144 |
| GTAACCCA | 0.234 |
| AGACTTAG | 0.257 |
| ACGACACG | -0.0336 |
| AGGAACAA | 0.0963 |
| ACTAAGAA | 0.256 |
| AGTTCGGC | -0.104 |

| Sequence | PBM E-score |
| --- | --- |
| TATGAGGA | -0.02 |
| TACATTGA | 0.0284 |
| CCTAGTTA | 0.0589 |
| CATCGTAG | 0.098 |
| CCCACTCA | 0.0376 |
| GGACCAAA | -0.11 |
| ACGAGTCC | 0.289 |
| GGCCATAC | -0.235 |
| ACGCTTAC | -0.155 |
| ATTGTAGC | 0.0452 |
| CATATCAC | -0.0653 |
| ATCTATCC | -0.0727 |
| AGGTATCA | -0.0934 |
| CCGAACAC | 0.0199 |
| AAGAGAAT | -0.0224 |
| ATTGCTAC | -0.151 |
| TCGTAAGA | 0.0845 |
| GTGTAACA | 0.0398 |
| GTAGTCAA | 0.445 |
| CGGGAACC | -0.163 |
| AAGTGTTC | 0.00118 |
| AAGTATGA | 0.226 |
| GGATAGCC | -0.00217 |
| AGTTAAAA | -0.0467 |
| GCCCCTAC | -0.229 |

| Sequence | PBM E-score |
| --- | --- |
| ACAAGGTA | -0.206 |
| AATAGCGC | -0.177 |
| GGTCCACA | -0.0762 |
| AACACTCG | -0.0385 |
| CTGGCCCC | -0.268 |
| CTACTGGC | -0.277 |
| AAAGGACC | -0.216 |
| CTCTGAGC | -0.152 |
| CTCCAGCA | -0.147 |
| ATGACCAA | 0.0547 |
| CTCGTCCA | 0.179 |
| AAGATCGA | -0.133 |
| GTCATGAA | 0.308 |
| AATGTGAT | 0.146 |
| AGCGCACC | -0.18 |
| GATTCACC | 0.372 |
| GTCGACCA | 0.00581 |
| ACGGTCGC | -0.225 |
| AGGCTACT | -0.205 |
| AGGGTGTA | 0.00346 |
| AAATGAGG | -0.229 |
| ATGTCGAC | -0.0233 |
| GCCTCGCC | -0.359 |
| AAACTCCG | 0.0383 |
| GTATATAC | 0.0299 |

| Sequence | PBM E-score |
| --- | --- |
| ACCTTTAA | 0.00789 |
| TCGACGCA | 0.00283 |
| CTGTCATC | -0.19 |
| CATTAAGC | 0.00209 |
| TCAATCGA | 0.175 |
| ATCCCAAA | -0.0524 |
| AGAAACAG | -0.164 |
| CAGAGTGG | -0.106 |
| ACGTAGTG | -0.132 |
| AGACGCCT | -0.149 |
| GATTACCA | 0.315 |
| AAAGTAGT | 0.236 |
| CATTAGGG | -0.242 |
| ACATCACA | -0.0462 |
| AACTACTA | -0.0232 |
| GCCGATTA | -0.0381 |
| GCGTCAGA | -0.116 |
| CCAGGCCC | -0.34 |
| ATTGCCCC | -0.271 |
| CCTACTAC | -0.179 |
| GCCGTGCA | -0.055 |
| TAACTGGA | -0.0871 |
| GGCCTACC | -0.309 |
| CCTAGGTC | 0.0791 |
| ATGAGTAC | 0.415 |

| Sequence | PBM E-score |
| --- | --- |
| CCTCGTAC | -0.189 |
| AACTTTTA | 0.00975 |
| GCTTTACC | -0.0725 |
| CCTCAAAA | -0.108 |
| CTGTCAAG | -0.18 |
| GGAACCCC | -0.383 |
| CTGACAAG | 0.0529 |
| CTAATATA | 0.241 |
| AAGACGCC | -0.0564 |
| AGGCCAGG | -0.251 |
| ATCAAAAG | 0.188 |
| CACCTGCA | -0.0136 |
| GTAGCCGA | -0.00862 |
| GAACGTGA | 0.116 |
| GCCTCGTA | -0.128 |
| ACCCTTTC | -0.185 |
| ACAGACGC | -0.269 |
| GACGCTCC | -0.268 |
| CATGCTAA | 0.104 |
| GGGCGCCC | -0.184 |
| CGTCGGAG | 0.06 |
| CTAATGCA | 0.129 |
| CACGTCTC | -0.0632 |
| ATAAACCG | -0.0959 |
| GCGCACCC | -0.182 |

| Sequence | PBM E-score |
| --- | --- |
| GCCTGAAA | -0.00965 |
| ACACACGG | 0.0742 |
| AACCGACC | -0.101 |
| GAATAACC | -0.0513 |
| CAACGCAG | 0.0141 |
| ATGCTGAG | 0.0046 |
| CGCAGTTA | -0.0186 |
| ACTGGTCT | 0.0545 |
| AATAAGCC | -0.169 |
| ATGAGCAT | 0.0969 |
| CCGCCTGA | -0.138 |
| CAGGTTTA | 0.11 |
| AGCGATGA | 0.24 |
| TAAGACGA | 0.0133 |
| ATGAGAAA | 0.0542 |
| ACGGTGCC | -0.157 |
| ACAAAGTC | 0.156 |
| CAGATATC | 0.179 |
| ACTAGACT | 0.226 |
| AGTGTCAA | 0.271 |
| ACCTAGGT | -0.175 |
| CCCGCACG | -0.0871 |
| CCGCTGAC | 0.209 |
| AGTGAAAA | 0.0331 |
| GTATCGCA | -0.0495 |

| Sequence | PBM E-score |
| --- | --- |
| GAATCACC | 0.456 |
| CGGGACCG | -0.154 |
| ATAATGGG | 0.0748 |
| ATATGTAA | -0.0839 |
| CAAGATAA | 0.072 |
| CGGACGAC | 0.093 |
| ACTCCGTA | 0.0704 |
| AGACCAGC | -0.247 |
| ATCGAAAT | -0.0301 |
| AGAGATCA | 0.0253 |
| CTGTAATC | 0.19 |
| ACGGAACT | -0.171 |
| CAAGTTCG | -0.277 |
| ATCGACTA | 0.251 |
| ACCCAAGG | -0.00554 |
| TAACGGGA | 0.00305 |
| CAAGATGA | 0.244 |
| TATCAGCA | -0.0633 |
| GCTCCGAC | -0.0559 |
| ATTCTGCA | 0.207 |
| ATCTGGGC | -0.268 |
| ATGCGCCA | -0.351 |
